Laboratory results taken from patent US20260216242A1, “ALPP-SPECIFIC VARIANT ANTIGEN BINDING MOLECULES” (ALMAC DISCOVERY LIMITED, priority 2022, published 2026).

T1: hALPI (Homo sapiens, UniProt P09923)
T1 sequence (P09923 with tags, fused parts or gaps): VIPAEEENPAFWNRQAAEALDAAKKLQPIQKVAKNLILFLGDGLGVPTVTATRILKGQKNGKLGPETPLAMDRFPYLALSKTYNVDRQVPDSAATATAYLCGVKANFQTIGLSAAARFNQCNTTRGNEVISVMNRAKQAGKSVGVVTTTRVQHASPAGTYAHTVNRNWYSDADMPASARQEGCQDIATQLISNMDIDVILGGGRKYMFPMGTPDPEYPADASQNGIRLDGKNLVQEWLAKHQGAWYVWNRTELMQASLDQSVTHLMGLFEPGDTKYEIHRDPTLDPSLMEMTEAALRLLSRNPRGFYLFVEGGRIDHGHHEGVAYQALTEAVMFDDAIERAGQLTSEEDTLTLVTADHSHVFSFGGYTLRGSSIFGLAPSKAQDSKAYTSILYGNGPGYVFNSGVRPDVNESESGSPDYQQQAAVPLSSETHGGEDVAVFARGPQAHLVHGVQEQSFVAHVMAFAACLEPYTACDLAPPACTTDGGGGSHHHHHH

B1: C07-hFc (S239C): C07 VHH fused via [G4S]3 linker to human IgG1 Fc with S239C (protein)
chain: QVQLVESGGGLVQAGESLRLACAASGTIFSGNAVGWYRQAPEKQREWVSSITDYGDTDYAEAVKGRFTISRDNAKNTVYLQMNSLKPEDTAVYYCYVYQRGESEEYWGQGTQVTVSSGGGGSGGGGSGGGGS[human IgG1 Fc with changes not spelt out]
B2: E10-hFc (S239C): E10 VHH fused via [G4S]3 linker to human IgG1 Fc with S239C (SEQ ID NO: 100) (protein)
chain: QVQLVESGGGLVQAGGSLRLSCAVSGRALSDYNIGWFRQAPGKEREFVARKTWDGSSTRYDDSVKGRFTVSIEDAKNTAYLQMSSLKTEDTAVYYCAAGRYSRARGWEYDYWGQGTQVTVSSGGGGSGGGGSGGGGS[human IgG1 Fc with changes not spelt out]
B3: F05-hFc (S239C): F05 VHH fused via [G4S]3 linker to human IgG1 Fc with S239C (SEQ ID NO: 101) (protein)
chain: QVQLVESGGGLVQAGGSLRLSCAASGRAFGDYNIGWFRQAPGKEREFVARRTWDGSSTRYDDSVKGRFTVSIDNAKNTAYLQMNSLKTEDTAVYYCAAGRYSRVRGWEYDYWGQGTQVTVSSGGGGSGGGGSGGGGS[human IgG1 Fc with changes not spelt out]
B4: E06-hFc (S239C): E06 VHH fused via [G4S]3 linker to human IgG1 Fc with S239C (SEQ ID NO: 99) (protein)
chain: QVHLVESGGGLVQAGGSLRLSCAASRRSFSEYAMGWFRQAPGKEREFVAAIGWSGVIEYADSVKGRFTISRDNAKDTVYLQMNSLKPEDTAVYYCAAGLGIRVVSQTPAYWGQGTQVTVSSGGGGSGGGGSGGGGS[human IgG1 Fc with changes not spelt out]
B5: A06-hFc (S239C): A06 VHH fused via [G4S]3 linker to human IgG1 Fc with S239C (SEQ ID NO: 97) (protein)
chain: QVHLVESGGGLVQAGGSLRLSCAASGRTFLSMGWFRQAPGKEREFVAAISWTGGSTGYADSVKGRFTISRESDKETMYLQMNSLKPEDTAVYYCAARGDVYYGGDDATRYKYWGQGTQVTVSSGGGGSGGGGSGGGGS[human IgG1 Fc with changes not spelt out]
B6: B01-hFc (S239C): B01 VHH fused via [G4S]3 linker to human IgG1 Fc with S239C (protein)
chain: QVQLVESGGGLVQAGGSLRLSCEVTRSPMPIDTMAWYRQAPGRQRELVAIISRSGSTNYADSVKGRFTISRNDTKSTMYKSTMYLKMNTLELEDTGVYYCNAVGLWNGAEYWGQGTQVTVSSGGGGSGGGGSGGGGS[human IgG1 Fc with changes not spelt out]
B7: D10-hFc (S239C): D10 VHH fused via [G4S]3 linker to human IgG1 Fc with S239C (SEQ ID NO: 98) (protein)
chain: QVQLVESGGGLVQPGGSLRLSCAASGSIFSVNTMGWYRQAPGKQRDLVAVATSGGTIHYADSVKGRFTISRDNAKNTVYLQMNSLKPEDTAVYYCNLVVPYGMIAGDHDYWGQGTKVTVSSGGGGSGGGGSGGGGS[human IgG1 Fc with changes not spelt out]

Target: ALPP (Homo sapiens, UniProt P05187)
Assay: BLI binding kinetics, human ALPP immobilised on AR2G sensors (KD / KD apparent)
Conditions: VHH-hFc, KD apparent format
Protocol: (§1) Binding kinetics were determined using the Biolayer Interferometry (BLI) Octet K2 system (Sartorius). Human ALPP, ALPPL2, ALPL (each fused with a cysteine stabilised leucine zipper) and ALPI, (SEQ ID NO: 265, SEQ ID NO: 266 and SEQ ID NO: 267 and SEQ ID NO: 264 respectively) were immobilised in sodium acetate pH5 buffer to AR2G sensors using amine coupling. All assays were conducted in PBS with a plate temperature of 25° C. Ka (M^−1s^−1), Kd (s^−1) and KD (nM) values were determined using Octet Data Analysis High Throughput software (ForteBio) for Biolayer Interferometry.
(§2) Binding kinetics were determined using the Biolayer Interferometry (BLI) Octet K2 or R4 system (Sartorius). Human ALPP, ALPPL2 and ALPL all fused with a disulphide stabilised leucine zipper (SEQ ID NO: 265, SEQ ID NO: 266, and SEQ ID NO: 267) and ALPI His (SEQ ID NO: 264) were used in BLI experiments. For KD apparent measurements, the ALPP proteins were immobilised in sodium acetate pH5 buffer to AR2G sensors using amine coupling. To measure 1:1 interactions, AHC biosensors were used to immobilise Fc-fused proteins. All assays were conducted in HBS-EP with a plate temperature of 25° C. Ka (M^−1s^−1), Kd (s^−1) and KD (nM) values were determined using Octet Data Analysis High Throughput software (Sartorius) for Biolayer Interferometry.
as §2, with “NO:264)” for “NO: 264)”

Chain of UniProt P05187 (P05187 with tags, fused parts or gaps): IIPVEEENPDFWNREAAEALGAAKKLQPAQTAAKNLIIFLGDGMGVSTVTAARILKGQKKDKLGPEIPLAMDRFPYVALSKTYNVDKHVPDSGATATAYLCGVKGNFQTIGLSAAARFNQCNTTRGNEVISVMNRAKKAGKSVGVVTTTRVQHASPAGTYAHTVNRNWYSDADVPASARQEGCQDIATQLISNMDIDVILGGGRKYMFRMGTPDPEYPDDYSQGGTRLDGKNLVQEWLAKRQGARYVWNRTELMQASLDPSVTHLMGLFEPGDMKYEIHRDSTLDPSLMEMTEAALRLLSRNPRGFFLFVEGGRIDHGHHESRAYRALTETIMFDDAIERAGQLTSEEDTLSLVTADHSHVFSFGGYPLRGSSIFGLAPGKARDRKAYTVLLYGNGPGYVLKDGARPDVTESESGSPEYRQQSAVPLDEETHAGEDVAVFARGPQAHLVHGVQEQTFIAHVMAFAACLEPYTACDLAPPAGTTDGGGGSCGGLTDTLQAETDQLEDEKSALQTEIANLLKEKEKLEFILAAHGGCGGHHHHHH

| Molecule | hALPP Ka | hALPP Kd |
| --- | --- | --- |
| B1 | 151000 M⁻¹ s⁻¹ | <1e-07 s⁻¹ |
| B2 | 382000 M⁻¹ s⁻¹ | 0.00000469 s⁻¹ |
| B3 | 330000 M⁻¹ s⁻¹ | 0.0000206 s⁻¹ |
| B4 | 321000 M⁻¹ s⁻¹ | 0.0000122 s⁻¹ |
| B5 | 203000 M⁻¹ s⁻¹ | 0.00000018 s⁻¹ |
| B6 | 140000 M⁻¹ s⁻¹ | <1e-07 s⁻¹ |
| B7 | 160000 M⁻¹ s⁻¹ | 0.0000108 s⁻¹ |

Target: T1, hALPI
Assay: BLI binding to ALPI His
Conditions: VHH-hFc
Protocol: as §1, §2
as §2, with “NO:264)” for “NO: 264)”

| Molecule | hALPI |
| --- | --- |
| B1 | No binding |
| B2 | No binding |
| B3 | No binding |
| B4 | No binding |
| B5 | No binding |
| B6 | Low level binding |
| B7 | No binding |

Target: hALPL (Homo sapiens, UniProt P05186)
Assay: BLI binding to human ALPL
Conditions: VHH-hFc
Protocol: as §1, §2
as §2, with “NO:264)” for “NO: 264)”

Chain of hALPL (P05186 with tags, fused parts or gaps): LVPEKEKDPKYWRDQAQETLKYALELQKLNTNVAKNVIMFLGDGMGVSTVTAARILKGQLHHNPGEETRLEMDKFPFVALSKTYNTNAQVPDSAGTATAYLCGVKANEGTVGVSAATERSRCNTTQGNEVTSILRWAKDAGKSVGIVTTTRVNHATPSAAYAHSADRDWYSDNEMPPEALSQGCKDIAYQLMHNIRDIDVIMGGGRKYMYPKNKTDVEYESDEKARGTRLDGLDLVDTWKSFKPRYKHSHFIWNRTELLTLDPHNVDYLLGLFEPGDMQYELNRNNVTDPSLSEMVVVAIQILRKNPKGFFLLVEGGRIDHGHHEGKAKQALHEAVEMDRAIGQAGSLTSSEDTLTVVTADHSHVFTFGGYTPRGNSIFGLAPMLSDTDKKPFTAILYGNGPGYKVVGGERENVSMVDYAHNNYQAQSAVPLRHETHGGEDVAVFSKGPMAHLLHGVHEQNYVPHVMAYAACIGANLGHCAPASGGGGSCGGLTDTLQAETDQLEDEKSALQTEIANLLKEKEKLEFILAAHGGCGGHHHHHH

| Molecule | hALPL |
| --- | --- |
| B1 | No binding |
| B2 | No binding |
| B3 | No binding |
| B4 | No binding |
| B5 | No binding |
| B6 | No binding |
| B7 | No binding |

Target: T2, mouse ALPPL2 (Mus musculus, UniProt P24823)
T2 construct: made in house
Assay: BLI cross-species reactivity, mouse ALPPL2
Type: binding
Conditions: VHH-hFc, KD apparent
Protocol: as §2
(§3) To assess cross-species reactivity of the ALPP/ALPPL2 targeting VHH-hFc fusions, BLI was conducted using mouse ALPPL2 (NCBI #NP_031459), rhesus monkey ALPP (NCBI #XP_028687061) and cynomolgus monkey ALPP (NCBI #XP_045223825). Each of these were expressed as cysteine-stabilised leucine zipper fusions (SEQ ID NO: 271, SEQ ID NO: 272 and SEQ ID NO: 273). BLI was conducted as described above.

T2 sequence (P24823 with tags, fused parts or gaps): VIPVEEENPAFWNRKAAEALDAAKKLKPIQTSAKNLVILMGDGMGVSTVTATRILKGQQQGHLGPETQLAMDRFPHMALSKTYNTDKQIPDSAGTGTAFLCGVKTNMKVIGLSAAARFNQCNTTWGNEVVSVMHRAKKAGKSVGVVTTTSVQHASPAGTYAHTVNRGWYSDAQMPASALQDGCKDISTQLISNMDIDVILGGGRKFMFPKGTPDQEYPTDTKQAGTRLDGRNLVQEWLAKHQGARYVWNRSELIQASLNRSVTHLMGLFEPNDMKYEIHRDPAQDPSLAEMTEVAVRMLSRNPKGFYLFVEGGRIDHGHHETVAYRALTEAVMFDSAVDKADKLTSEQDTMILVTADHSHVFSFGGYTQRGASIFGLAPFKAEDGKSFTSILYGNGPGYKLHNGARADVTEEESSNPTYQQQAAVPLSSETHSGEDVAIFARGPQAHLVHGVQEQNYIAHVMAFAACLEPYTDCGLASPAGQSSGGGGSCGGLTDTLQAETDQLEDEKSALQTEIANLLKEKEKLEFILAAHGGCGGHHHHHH

| Molecule | mALPPL2 KD |
| --- | --- |
| B1 | No Binding |
| B4 | No Binding |
| B6 | No Binding |
| B7 | No Binding |

Same assay, conditions: VHH-hFc, KD apparent format

| Molecule | mALPPL2 Ka | mALPPL2 Kd |
| --- | --- | --- |
| B2 | 1620000 M⁻¹ s⁻¹ | 0.0042 s⁻¹ |
| B3 | 3910000 M⁻¹ s⁻¹ | 0.00228 s⁻¹ |
| B5 | 392000 M⁻¹ s⁻¹ | 0.0000182 s⁻¹ |

Test system: rhesus monkey ALPP
Assay: BLI cross-species reactivity, rhesus monkey ALPP
Type: binding
Conditions: VHH-hFc, KD apparent format
Protocol: as §2, §3

| Molecule | rmALPP Ka | rmALPP Kd |
| --- | --- | --- |
| B1 | 667000 M⁻¹ s⁻¹ | 0.000481 s⁻¹ |
| B2 | 544000 M⁻¹ s⁻¹ | <1e-07 s⁻¹ |
| B3 | 1030000 M⁻¹ s⁻¹ | 0.0000869 s⁻¹ |
| B4 | 752000 M⁻¹ s⁻¹ | <1e-07 s⁻¹ |
| B5 | 228000 M⁻¹ s⁻¹ | <1e-07 s⁻¹ |
| B6 | 194000 M⁻¹ s⁻¹ | 0.00000481 s⁻¹ |
| B7 | 126000 M⁻¹ s⁻¹ | <1e-07 s⁻¹ |

Same assay, conditions: VHH-hFc, KD apparent; read-out: rmALPP KD

| Molecule | Kd |
| --- | --- |
| B3 | 0.276 nM |

Test system: cynomolgus monkey ALPP
Assay: BLI cross-species reactivity, cynomolgus monkey ALPP
Type: binding
Conditions: VHH-hFc, KD apparent format
Protocol: as §2, §3

| Molecule | CynoALPP Ka | CynoALPP Kd |
| --- | --- | --- |
| B2 | 622400 M⁻¹ s⁻¹ | <1e-07 s⁻¹ |
| B3 | 105800 M⁻¹ s⁻¹ | <1e-07 s⁻¹ |
| B4 | 973900 M⁻¹ s⁻¹ | 0.00025 s⁻¹ |
| B5 | 664200 M⁻¹ s⁻¹ | <1e-07 s⁻¹ |
| B7 | 1090000 M⁻¹ s⁻¹ | <1e-07 s⁻¹ |

Positions count from the first letter of the chain named. In names and notes the source's numbering stands.
